# Inconclusive means that the source gave no clear call. Such entries were picked first, then a sample of the others. For some of these results: No potency is given beside an inconclusive call; the fits are too rough. The source made the active and inactive calls. Unless noted, calls follow the shape of the dose curve; as a rule, active = well fitted curve in the direction sought with a large enough effect in the repeat runs; inconclusive = weak or mixed curves; inactive = no such curve, though single readings can be large; an effect the other way counts as inactive or inconclusive.
# Key:
# [1] = target: Peroxisome proliferator-activated receptor delta (Homo sapiens) (UniProt Q03181); assay: qHTS assay to identify small molecule antagonists of the peroxisome proliferator-activated receptor delta (PPARd) signaling pathway (AID 743215; active = well fitted inhibition curve with a large enough effect in the signal ratio in the repeat runs, not every such curve was filed as active; inconclusive = weak or mixed curves, or effect the other way; inactive = no such curve, though single readings can be large or run the other way; the % refers to the signal ratio;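 also: cells stimulated with agonist L165041 at 300 nM final during compound exposure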; also: potency is read from the fitted curve at half-maximal effect); settings: HEK293H PPARd-UAS-bla, beta-lactamase FRET ratio, antagonist, 17 h; ratio activity, negative = inhibition: at 62 µM (top of the series) unless noted
# Method in brief: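 Inhibition of L165041-driven (300 nM final) PPARd signaling is scored in HEK293H UAS-bla cells. Exposure lasts 17 h at 37 C; beta-lactamase activity is then read by FRET substrate fluorescence after 2 h at room temperature.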
# [2] = target: Bile acid receptor (Homo sapiens) (UniProt Q96RI1); assay: qHTS assay to identify small molecule antagonists of the farnesoid-X-receptor (FXR) signaling pathway (AID 743217; active = well fitted inhibition curve with a large enough effect in the signal ratio in the repeat runs, not every such curve was filed as active; inconclusive = weak or mixed curves, or effect the other way; inactive = no such curve, though single readings can be large or run the other way; the % refers to the signal ratio; also: potency is read from the fitted curve at half-maximal effect; as to activity change, negative = inhibition: % is scaled to controls: 0 for no effect and ±100 for the full control effect); settings: HEK293T FXR-UAS-bla, beta-lactamase ratio, CDCA-stimulated, 16 h; activity change, negative = inhibition: at 62.6 µM (top of the series) unless noted
# Method in brief: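 Antagonist mode against 50 uM (final) chenodeoxycholic acid stimulation in FXR-bla HEK 293T cells, 16 h at 37 °C. Inhibition detected as reduced beta-lactamase activity via LiveBLAzer B/G FRET fluorescence after 2 h at room temperature.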
# [3] = target: Vitamin D3 receptor (Homo sapiens) (UniProt P11473); assay: qHTS assay to identify small molecule agonists of the vitamin D receptor (VDR) signaling pathway (AID 743222; calls by dose curve; also: potency is read from the fitted curve at half-maximal effect; as to activation: % is scaled to controls: 0 for no effect and ±100 for the full control effect); settings: HEK293T VDR-UAS-bla, beta-lactamase FRET ratio, 16 h; activation: at 63.5 µM (top of the series) unless noted
# Method in brief: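 Quantitative HTS agonist-mode screen: compounds in DMSO were pin-transferred onto VDR-bla cells and incubated 16 h at 37C, 5% CO2. Reporter activity was detected with LiveBLAzer B/G FRET substrate after 2 h at room temperature.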
# [4] = qHTS assay to identify small molecule agonists of the endoplasmic reticulum stress response signaling pathway (AID 1159516; active = well fitted activation curve with a large enough effect in the signal ratio in the repeat runs, not every such curve was filed as active; inconclusive = weak or mixed curves, or effect the other way; the % refers to the signal ratio; also: potency is read from the fitted curve at half-maximal effect; as to activation: % is scaled to controls: 0 for no effect and ±100 for the full control effect); settings: ESRE-bla HeLa, ER stress beta-lactamase reporter, 5 h; activation: at 61 µM (top of the series) unless noted
# Method in brief: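 Tox21 10K library screened in quantitative HTS format on ESRE-bla HeLa cells, a beta-lactamase reporter under ER stress response element control; 5 hr treatment, FRET read.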
# [5] = target: Nuclear receptor ROR-gamma (Homo sapiens) (UniProt P51449); assay: qHTS assay to identify small molecule antagonists of the retinoid-related orphan receptor gamma (ROR-gamma) signaling pathway (AID 1159521; also: nearly all actives have a fitted effect of over 50% in size; also: potency is read from the fitted curve at half-maximal effect)
# Method in brief: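 Luminescence readout (ONE-Glo, 30 min RT) after 16 h doxycycline induction; loss of signal scored as antagonism. CHO cells with TET-inducible RORγ and RORE-LUC reporter; compounds added 2 h before 1 uM final doxycycline.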
# [6] = target: Retinoic acid receptor RXR-alpha (Homo sapiens) (UniProt P19793); assay: qHTS assay to identify small molecule agonists of the RXR signaling pathway (AID 1159527; calls by dose curve; also: nearly all actives have a fitted effect of over 35% in size; also: potency is read from the fitted curve at half-maximal effect); settings: HEK293T RXRa-UAS-bla, beta-lactamase ratio, 16 h; activation: at 76.8 µM (top of the series) unless noted
# Method in brief: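 Agonist mode; 9-cis retinoic acid positive control. HEK 293T UAS-bla reporter cells, 2% charcoal-stripped FBS, 16 hr compound exposure at 37 C/5% CO2. LiveBLAzer B/G FRET substrate 2 hr RT; ex 405, em 460/530 nm.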
# [7] = qHTS assay to identify small molecule agonists of the farnesoid-X-receptor (FXR) signaling pathway - cell viability counter screen (AID 743218); settings: FXR-bla HEK293T viability, CellTiter-Glo luminescence, 16 h; viability change, negative = cytotoxic: at 62.6 µM (top of the series) unless noted; also: potency is read from the fitted curve at half-maximal effect; nearly all actives have a fitted effect of over 45% in size
# Method in brief: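 Cytotoxicity counter-screen run in parallel, same wells: FXR-UAS-bla HEK 293T cells dosed 16 h at 37 C, viability read by CellTiter-Glo luminescence after 30 min at room temperature.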
# [8] = target: Bile acid receptor (Homo sapiens) (UniProt Q96RI1); assay: qHTS assay to identify small molecule agonists of the farnesoid-X-receptor (FXR) signaling pathway (AID 743220; active = well fitted activation curve with a large enough effect in the signal ratio in the repeat runs, not every such curve was filed as active; inconclusive = weak or mixed curves, or effect the other way; the % refers to the signal ratio; also: potency is read from the fitted curve at half-maximal effect); settings: HEK293T FXR-UAS-bla, beta-lactamase FRET ratio, 16 h; activation: at 62.6 µM (top of the series) unless noted
# Method in brief: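 Beta-lactamase reporter under UAS control in GeneBLAzer FXR HEK 293T cells (5000/well) measured with LiveBLAzer FRET substrate after 2 h at room temperature. Compound exposure lasted 16 h at 37C.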
# [9] = qHTS assay to identify small molecule agonists of the RXR signaling pathway - cell viability counter screen (AID 1159529); also: potency is read from the fitted curve at half-maximal effect; nearly all actives have a fitted effect of over 50% in size
# Method in brief: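 Luminescence from CellTiter-Glo (30 min, RT) measured viability in the same wells as the beta-lactamase reporter readout. Cells: GeneBLAzer RXR-alpha HEK 293T, 2% charcoal-stripped FBS. Compound exposure 16 hr, 37 C.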
# [10] = qHTS assay to identify small molecule antagonists of the farnesoid-X-receptor (FXR) signaling pathway - cell viability counter screen (AID 743221; active = well fitted cell-killing curve with a large enough effect in the repeat runs, not every such curve was filed as active; inconclusive = weak or mixed curves, or effect the other way; inactive = no such curve, though single readings can be large or run the other way; also: potency is read from the fitted curve at half-maximal effect; nearly all actives have a fitted effect of over 50% in size); settings: FXR-bla HEK293T viability, CellTiter-Glo luminescence, 16 h; activity change, negative = cytotoxicity: at 62.6 µM (top of the series)
# Method in brief: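 HEK 293T FXR-bla cells, 5 h pre-incubation; compound + CDCA 50 uM final, 16 h, 37 C; beta-lactamase FRET read first, then CellTiter-Glo luminescence, 30 min RT.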
# [11] = target: Vitamin D3 receptor (Homo sapiens) (UniProt P11473); assay: qHTS assay to identify small molecule antagonists of the vitamin D receptor (VDR) signaling pathway (AID 743223; active = well fitted inhibition curve with a large enough effect in the signal ratio in the repeat runs, not every such curve was filed as active; inconclusive = weak or mixed curves, or effect the other way; inactive = no such curve, though single readings can be large or run the other way; the % refers to the signal ratio; also: % is scaled to controls: 0 for no effect and ±100 for the full control effect); settings: VDR-UAS-bla HEK293T, beta-lactamase FRET ratio, 16 h; activity change, negative = inhibition: at 61 µM (top of the series) unless noted
# Method in brief: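 Beta-lactamase reporter read-out: FRET substrate fluorescence after 2 h at room temperature, following 16 h exposure of VDR-bla cells to test compound plus 3 nM (final) 1alpha,25-dihydroxyvitamin D3 agonist at 37C.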
# [12] = qHTS assay to identify small molecule antagonists of the vitamin D receptor (VDR) signaling pathway - cell viability counter screen (AID 743225); settings: VDR-bla HEK293T viability, CellTiter-Glo luminescence, 16 h; viability change, negative = cytotoxic: at 61 µM (top of the series) unless noted; also: nearly all actives have a fitted effect of over 50% in size; also: potency is read from the fitted curve at half-maximal effect
# Method in brief: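 Viability counter screen run in the same wells as the beta-lactamase reporter assay: HEK 293T VDR-UAS-bla cells, 16 h compound exposure at 37C with 3 nM (final) 1-alpha,25-dihydroxyvitamin D3. CellTiter-Glo luminescence, 30 min, room temperature.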
# [13] = qHTS assay to identify small molecule agonists of the AP-1 signaling pathway (AID 1159526; calls by dose curve; also: potency is read from the fitted curve at half-maximal effect); settings: ME-180 (cervical carcinoma) AP-1-bla reporter, beta-lactamase FRET ratio, 5 h; activation: at 76.8 µM (top of the series) unless noted
# [14] = qHTS assay to identify small molecule antagonists of the peroxisome proliferator-activated receptor delta (PPARd) signaling pathway - cell viability counter screen (AID 743213); settings: PPARd-bla HEK293H viability, CellTiter-Glo luminescence, 17 h; viability change, negative = cytotoxic: at 62 µM (top of the series) unless noted
# Method in brief: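 Luminescence from CellTiter-Glo, added after the bla read and incubated 30 min at room temperature, gives viability of HEK293H PPARd-bla cells exposed to compounds for 17 h at 37 C with 300 nM L165041.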
# [15] = qHTS assay to identify small molecule antagonists of the retinoid acid receptor (RAR) signaling pathway - cell viability counter screen (AID 1159551); also: potency is read from the fitted curve at half-maximal effect; nearly all actives have a fitted effect of over 35% in size
# Method in brief: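 Cytotoxicity counter screen in C3RL4 cells: 6 h compound exposure with 1 uM retinol (final), viability from cellular ATP by luminescence.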
# [16] = target: Peroxisome proliferator-activated receptor delta (Homo sapiens) (UniProt Q03181); assay: qHTS assay to identify small molecule agonists of the peroxisome proliferator-activated receptor delta (PPARd) signaling pathway (AID 743212; calls by dose curve; also: potency is read from the fitted curve at half-maximal effect); settings: HEK293H PPARd-UAS-bla, beta-lactamase FRET ratio, 17 h; activation: at 62.6 µM (top of the series) unless noted
# Method in brief: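 GeneBLAzer PPARd UAS-bla HEK293H cells (beta-lactamase reporter under UAS control), plated and rested 5 h at 37 C, then exposed to compounds in DMSO at 37 C; LiveBLAzer B/G FRET substrate added, 2 h room temperature, fluorescence read.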
# [17] = qHTS assay to identify small molecule agonists of the vitamin D receptor (VDR) signaling pathway - cell viability counter screen (AID 743224); settings: VDR-bla HEK293T viability, CellTiter-Glo luminescence, 16 h; activity change, negative = cytotoxicity: at 62.6 µM (top of the series)
# Method in brief: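 Viability is measured in the same wells as the VDR-bla reporter assay: after 16 h compound treatment and 2 h substrate loading, CellTiter-Glo is added and luminescence read 30 min later.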
# Tags tell the direction and shape of the fitted curve or compound fluorescence and quenching.
# Sequence of UniProt Q96RI1 (Q96RI1 whole entry, looked up): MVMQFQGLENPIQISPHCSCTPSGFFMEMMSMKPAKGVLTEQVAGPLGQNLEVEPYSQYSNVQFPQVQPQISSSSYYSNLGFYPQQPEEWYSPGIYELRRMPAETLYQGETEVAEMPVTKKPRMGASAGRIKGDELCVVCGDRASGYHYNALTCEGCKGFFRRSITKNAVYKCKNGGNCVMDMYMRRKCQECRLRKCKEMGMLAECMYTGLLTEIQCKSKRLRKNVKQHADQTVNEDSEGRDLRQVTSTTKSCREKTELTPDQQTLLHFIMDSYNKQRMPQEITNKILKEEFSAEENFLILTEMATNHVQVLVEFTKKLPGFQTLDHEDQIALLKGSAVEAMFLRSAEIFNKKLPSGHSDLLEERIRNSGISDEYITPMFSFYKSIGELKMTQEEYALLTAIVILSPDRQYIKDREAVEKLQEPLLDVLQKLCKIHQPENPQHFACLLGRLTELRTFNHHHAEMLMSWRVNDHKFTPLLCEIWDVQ
# Sequence of UniProt P11473 (P11473 whole entry, looked up): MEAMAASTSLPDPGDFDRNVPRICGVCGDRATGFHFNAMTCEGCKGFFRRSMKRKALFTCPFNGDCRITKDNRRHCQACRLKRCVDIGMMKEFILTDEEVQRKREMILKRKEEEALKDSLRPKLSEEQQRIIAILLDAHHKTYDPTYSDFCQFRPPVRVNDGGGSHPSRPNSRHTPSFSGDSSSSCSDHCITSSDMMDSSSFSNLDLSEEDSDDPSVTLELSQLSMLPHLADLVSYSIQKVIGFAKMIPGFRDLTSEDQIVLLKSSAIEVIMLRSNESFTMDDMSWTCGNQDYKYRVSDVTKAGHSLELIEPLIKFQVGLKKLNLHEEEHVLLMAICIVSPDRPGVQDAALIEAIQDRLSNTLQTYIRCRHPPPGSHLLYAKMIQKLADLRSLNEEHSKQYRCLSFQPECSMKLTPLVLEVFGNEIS
# Sequence of UniProt Q03181 (Q03181 whole entry, looked up): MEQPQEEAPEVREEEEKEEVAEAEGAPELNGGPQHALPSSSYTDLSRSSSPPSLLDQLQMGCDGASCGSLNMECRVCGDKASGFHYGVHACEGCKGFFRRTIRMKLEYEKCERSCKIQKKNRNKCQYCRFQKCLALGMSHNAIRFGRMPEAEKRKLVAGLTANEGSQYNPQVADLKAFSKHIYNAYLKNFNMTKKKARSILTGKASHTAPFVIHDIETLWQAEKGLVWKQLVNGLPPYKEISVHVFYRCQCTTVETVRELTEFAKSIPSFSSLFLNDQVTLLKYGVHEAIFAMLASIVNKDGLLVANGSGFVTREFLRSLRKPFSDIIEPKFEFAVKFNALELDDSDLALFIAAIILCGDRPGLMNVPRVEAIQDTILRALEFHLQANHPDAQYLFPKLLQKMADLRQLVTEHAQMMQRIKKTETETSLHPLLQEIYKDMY
# Sequence of UniProt P19793 (P19793 whole entry, looked up): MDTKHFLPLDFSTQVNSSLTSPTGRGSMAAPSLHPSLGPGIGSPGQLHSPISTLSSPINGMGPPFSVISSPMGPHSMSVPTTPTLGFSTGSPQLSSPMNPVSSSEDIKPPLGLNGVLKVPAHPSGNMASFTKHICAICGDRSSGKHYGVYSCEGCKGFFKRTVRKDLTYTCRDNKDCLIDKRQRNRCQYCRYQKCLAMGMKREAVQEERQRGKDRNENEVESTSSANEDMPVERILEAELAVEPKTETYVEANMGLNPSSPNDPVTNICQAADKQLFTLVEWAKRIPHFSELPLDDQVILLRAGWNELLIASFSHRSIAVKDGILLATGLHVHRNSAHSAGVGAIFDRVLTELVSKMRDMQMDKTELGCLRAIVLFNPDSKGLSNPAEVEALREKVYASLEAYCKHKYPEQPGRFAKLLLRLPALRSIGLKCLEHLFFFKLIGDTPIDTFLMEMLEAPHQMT
structure (smiles),measurement,setting,value
Nc1ccc([N+](=O)[O-])c(C(F)(F)F)c1,Potency,[1],"inconclusive [rising, full curve, poor fit]"
same,"activity change, negative = inhibition",[2],inconclusive: -7.07%
same,activation,[3],inconclusive: -11.3%
same,Potency,[4],inactive
same,Potency,[5],"inconclusive [inhibitor, partial curve, poor fit]"
same,Potency,[6],inactive
Brc1cc(-c2ccc(Br)c(Br)c2Br)cc(Br)c1Br,Potency,[1],inactive
same,Potency,[2],"inconclusive [inhibitor, full curve]"
same,Potency,[7],"inconclusive [rising, full curve]"
same,Potency,[8],"inconclusive [fluorescent, single point]"
same,Potency,[3],inactive
same,Potency,[4],inactive
same,Potency,[5],"inconclusive [inhibitor, partial curve, poor fit]"
same,Potency,[6],"inconclusive [rising, partial curve]"
same,Potency,[9],active: 10.8 µM
CN1CCN(C2=Nc3cc(F)ccc3Cc3ccccc32)CC1,Potency,[10],"inconclusive [falling, partial curve, poor fit]"
same,Potency,[3],inactive
same,Potency,[11],inactive
same,Potency,[12],"inconclusive [cytotoxic, partial curve]"
same,Potency,[4],inactive
same,Potency,[5],inactive
same,Potency,[13],"inconclusive [activator, partial curve, poor fit]"
same,Potency,[9],"inconclusive [cytotoxic, partial curve, poor fit]"
CCN(CCC#N)c1ccc(N=Nc2c(Cl)cc([N+](=O)[O-])cc2Cl)cc1,Potency,[14],"inconclusive [cytotoxic, single point]"
same,Potency,[1],inactive
same,"activity change, negative = inhibition",[2],inconclusive: -4.28%
same,Potency,[7],"inconclusive [cytotoxic, full curve]"
same,Potency,[8],inactive
same,Potency,[10],"inconclusive [falling, partial curve]"
same,Potency,[12],"inconclusive [cytotoxic, partial curve]"
same,Potency,[4],inconclusive [cytotoxic]
same,Potency,[5],"inconclusive [inhibitor, partial curve]"
same,Potency,[13],"inconclusive [falling, partial curve]"
same,Potency,[6],inconclusive [inhibitor]
same,Potency,[9],"inconclusive [cytotoxic, partial curve, poor fit]"
Cc1cc(S(=O)(=O)O)ccc1N=Nc1c(O)ccc2ccccc12,Potency,[12],inactive
same,Potency,[4],inactive
same,Potency,[5],"inconclusive [inhibitor, single point]"
same,activation,[6],inconclusive: 21.6%
same,Potency,[15],"inconclusive [cytotoxic, partial curve, poor fit]"
CCCc1c(OCCCOc2ccc(OCC(=O)O)cc2)ccc(C(C)=O)c1O,Potency,[16],active: 0.011 µM
same,Potency,[14],"inconclusive [cytotoxic, partial curve, poor fit]"
same,"ratio activity, negative = inhibition",[1],inconclusive: -0.36%
same,Potency,[2],inactive
same,Potency,[7],"inconclusive [cytotoxic, partial curve, poor fit]"
same,activation,[8],inconclusive: 6.91%
same,Potency,[3],"inconclusive [rising, partial curve, poor fit]"
same,Potency,[4],inactive
same,Potency,[5],"inconclusive [inhibitor, partial curve]"
same,Potency,[13],inconclusive
same,Potency,[6],"inconclusive [fluorescent, full curve, poor fit]"
same,Potency,[15],"inconclusive [cytotoxic, partial curve, poor fit]"
CCCCN1CCCC1C(=O)Nc1c(C)cc(C)cc1C (centres undefined),Potency,[14],"inconclusive [cytotoxic, partial curve, poor fit]"
same,"activity change, negative = cytotoxicity",[17],inconclusive: -30.5% [cytotoxic]
same,Potency,[4],"inconclusive [falling, single point]"
same,Potency,[5],"inconclusive [inhibitor, single point]"
same,Potency,[13],"inconclusive [activator, partial curve, poor fit]"
same,Potency,[9],"inconclusive [cytotoxic, partial curve, poor fit]"
Nc1nc(Cl)nc2c1ncn2[C@@H]1O[C@H](CO)[C@@H](O)[C@@H]1F,"ratio activity, negative = inhibition",[1],inconclusive: 17.1%
same,Potency,[2],"inconclusive [inhibitor, partial curve, poor fit]"
same,"activity change, negative = inhibition",[11],inconclusive: 1.85%
same,Potency,[4],inactive
same,Potency,[5],"inconclusive [inhibitor, full curve, poor fit]"
same,Potency,[6],inactive

# Source: PubChem BioAssay (Tox21)
